{"source": "PubChem BioAssay AID1347071", "about": "(National Center for Advancing Translational Sciences (NCATS), 2019)", "note": "The whole screen tested about 410,000 compounds, of which about 260 (0.063%) were called active. The inconclusive results got no clear call from the source; some entries with a clear call stand among them for comparison. Calls come from the whole dose curve; as a rule, active = well fitted activation curve with a large enough effect; inconclusive = small, poorly fitted or top-dose-only effect; inactive = no such curve, though single readings can be large or run the other way. Potencies of inconclusive entries are left out as doubtful fits. Potency is the fitted concentration of half-maximal effect; tags give direction and shape of the fitted curve.", "data": [{"experiment": "qHTS for compounds that reverse cellular toxicity of Amyloid beta (A-beta) peptide in yeast: Primary Screen; note: nearly all actives have a fitted effect of over 55% in size", "conditions": "yeast expressing A-beta42, growth rescue, OD600, 48 h; growth rescue: at 46.1 µM (top of the series), 0% DMSO, 100% iron-clioquinol control", "summary_of_the_method": "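Yeast A-beta toxicity model in growth medium with pinned compounds, 48 h at 30 C; growth read as absorbance at 600 nm. Normalized to FeCl3/clioquinol equimolar mix (positive) and DMSO (negative).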", "values": [{"smiles": "Cc1cccc(C)c1NC(=O)c1c[nH]c2ccccc12", "growth rescue": "inconclusive: 33.5% [activator]"}, {"smiles": "O=C(CN1c2ccccc2Sc2ccccc21)NNC(=S)Nc1ccc(Cl)cc1", "growth rescue": "inactive: 29.9%"}, {"smiles": "CN1/C(=C\\C(=S)Nc2ccccc2)C(C)(C)c2ccccc21", "Potency": "inconclusive [activator, single point]"}, {"smiles": "COc1ccc(-c2cc(C(=O)N3CCCc4ccccc43)no2)cc1OC", "growth rescue": "inactive: -10.1%"}, {"smiles": "Fc1ccc(-c2csc(Nc3ccccn3)n2)c(F)c1", "Potency": "inconclusive [activator, full curve]"}, {"smiles": "COc1ccc(NS(=O)(=O)c2cccc(Cl)c2Cl)cc1S(=O)(=O)N1CCCCC1", "Potency": "inconclusive [activator, partial curve, poor fit]"}, {"smiles": "Cc1[nH]c2ccccc2c1CN1CCN(c2ccccn2)CC1", "Potency": "inconclusive [activator, single point]"}, {"smiles": "CC(C)CC(=O)N/C(N)=N/c1nc2ccccc2o1", "Potency": "inconclusive [activator, single point]"}, {"smiles": "Cc1cc2ccccc2nc1SCC(=O)N1c2ccccc2CC1C", "note": "(configuration not stated)", "growth rescue": "inactive: 4.77%"}, {"smiles": "COc1cc(OC)cc(-c2nnc(SCC(=O)N3CCCc4ccccc43)o2)c1", "growth rescue": "inactive: -19.4%"}, {"smiles": "CCOCC(=O)N1CCN(c2ccccc2OC)CC1", "growth rescue": "inactive: 1.83%"}, {"smiles": "Cc1cc(C)c(NC(=O)Cn2nnc(-c3nc(-c4ccncc4)no3)c2N)c(C)c1", "growth rescue": "inactive: -10.5%"}, {"smiles": "Cc1[nH]c2ccccc2c1SCC(=O)N1CCCCCC1", "Potency": "inconclusive [activator, partial curve, poor fit]"}, {"smiles": "S=C(Nc1ccccc1)Nc1ccccn1", "Potency": "inconclusive [activator, single point]"}, {"smiles": "COC(=O)c1ccc(Cl)c(NS(=O)(=O)c2ccc3c(c2)OCCO3)c1", "growth rescue": "inactive: -11.3%"}, {"smiles": "Cc1ccc(S(=O)(=O)Nc2ccc3c(c2)C(=O)N([C@H](C)CO)C[C@H](C)[C@H](CN(C)C(=O)Nc2cccc4ccccc24)OCCCC[C@@H](C)O3)cc1", "growth rescue": "inactive: 7.81%"}, {"smiles": "Cc1ccc(C(C)C)c(OCCN2C(=O)NC(C)(C)C2=O)c1", "Potency": "inconclusive [activator, partial curve, poor fit]"}, {"smiles": "Clc1ccc2[nH]c(-c3ccccc3)cc2c1", "Potency": "inconclusive [activator, partial curve]"}, {"smiles": "Cc1ccsc1C(=O)OCC(=O)Nc1ccc(Cl)cn1", "Potency": "inconclusive [activator, single point]"}, {"smiles": "CC(C)(C)c1ccc(S(=O)(=O)N2CC(=O)Nc3ccccc32)cc1", "Potency": "inconclusive [activator, full curve]"}, {"smiles": "CCc1nn2c(=O)cc(COC(=O)c3cccs3)nc2s1", "growth rescue": "inactive: -11.9%"}, {"smiles": "CCCOC(=O)c1ccc(NC(=O)Cc2cccs2)cc1", "Potency": "inconclusive [activator, partial curve, poor fit]"}, {"smiles": "O=C(Nc1ccn(CCCN2CCN(c3ccccn3)CC2)c(=O)n1)OCc1ccccc1", "growth rescue": "inactive: 0.907%"}, {"smiles": "CC(=O)N/N=C/c1cc(C(C)C)cc(/C=N/NC(C)=O)c1O", "growth rescue": "inactive: -22.5%"}, {"smiles": "O=C(Nc1ccc2nn(-c3ccccc3)nc2c1)c1ccc2c(c1)OCCO2", "growth rescue": "inactive: 3.86%"}, {"smiles": "Cc1ccc(C(CC(=O)c2ccc(Cl)cc2)C(=O)O)cc1", "note": "(configuration not stated)", "Potency": "inconclusive [activator, partial curve, poor fit]"}, {"smiles": "O=c1cc(CSc2ccc(Cl)cc2)nc(-c2ccccn2)[nH]1", "Potency": "inconclusive [activator, single point]"}, {"smiles": "O=C1[C@H]2C(c3ccccc3)=NN(c3ccccc3)[C@H]2C(=O)N1c1ccccc1", "Potency": "inconclusive [activator, full curve, poor fit]"}, {"smiles": "NC(=S)N/N=C/c1ccc(-c2cc(Cl)cc(Cl)c2)o1", "Potency": "inconclusive [activator, partial curve, poor fit]"}, {"smiles": "Cc1ccc2c(c1)CCCN2C(=O)c1c(C)noc1C", "growth rescue": "inconclusive: -37.4% [activator]"}, {"smiles": "Cc1ccc(C)c(OCCC(=O)OCC(=O)NC(=O)NC2CCCCC2)c1", "Potency": "inconclusive [activator, single point]"}, {"smiles": "OC[C@@H]1CCCN1Cc1cn(-c2ccccc2)nc1-c1ccc2c(c1)OCO2", "Potency": "inconclusive [activator, full curve]"}, {"smiles": "C=CCNC(=S)N(Cc1ccccc1)Cc1ccc(F)cc1", "Potency": "inconclusive [activator, single point]"}, {"smiles": "Cc1ccc(C(=O)NC(=S)Nc2ccc3[nH]c(=O)[nH]c3c2)cc1", "Potency": "inconclusive [activator, single point]"}, {"smiles": "Cc1ccc(C)c(NC(=S)NCc2ccccc2)c1", "Potency": "inconclusive [activator, single point]"}, {"smiles": "COc1ccc(-c2cc(C(=O)NCCc3ccc(OC)c(OC)c3)c3ccccc3n2)cc1", "growth rescue": "inactive: 10.9%"}, {"smiles": "Cc1c(Cl)cccc1NC(=S)NCCc1ccccn1", "growth rescue": "inactive: -0.16%"}, {"smiles": "CCOc1ccccc1NC(=O)c1c(NCc2cccs2)sc2c1CCCCC2", "Potency": "inconclusive [activator, single point]"}, {"smiles": "OCCN(CCO)c1ncnc2c1oc1ccc(Br)cc12", "Potency": "inconclusive [activator, partial curve]"}, {"smiles": "CC(=O)Nc1ccc(NC(=O)c2cc3sccc3n2Cc2ccc(Cl)cc2)cc1", "growth rescue": "inactive: 14.4%"}, {"smiles": "O=C(CN1CCN(c2ccc(F)cc2)CC1)Nc1cccc(C(F)(F)F)c1", "Potency": "inconclusive [activator, single point]"}, {"smiles": "C=CCn1c(COc2ccccc2)nc2ccccc21", "Potency": "active: 20 µM"}, {"smiles": "CCOC(=O)c1c(NC(=O)c2cc3nc(-c4ccccc4)cc(C(F)(F)F)n3n2)sc2c1CCC(C)C2", "note": "(configuration not stated)", "growth rescue": "inactive: 6.49%"}, {"smiles": "C=CCN=c1scc(-c2ccccc2)n1/N=C/c1ccccn1", "Potency": "inconclusive [activator, single point]"}, {"smiles": "Cc1ccc(NC(=S)NCC(C)C)cc1", "Potency": "inconclusive [activator, partial curve, poor fit]"}, {"smiles": "O=C(CCC(=O)N1CCc2ccccc2C1)NCCc1ccc(Cl)cc1", "Potency": "inconclusive [activator, single point]"}, {"smiles": "COc1ccccc1/C=C/C(=O)OCC(=O)N1CCc2ccccc21", "Potency": "inconclusive [activator, single point]"}]}]}
